Lines with a small IC50 respond at low doses; fits outside the tested doses are given as limits. AUC sums up the same curve from the lowest dose to the 256-fold higher top dose; it is 1 without any effect and falls as sensitivity rises. Where the top dose is marked as inferred, it was calculated from the reported fits.

Compound in this assay: Cn1cc(C2=C(c3cn(C4CCN(Cc5ccccn5)CC4)c4ccccc34)C(=O)NC2=O)c2ccccc21 [LY317615]
Nature of the assay: Viability of human cancer cell lines after 72 h of drug (GDSC screen). The following applies: top dose inferred. How it is done: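 Human cancer cell lines in 384-well plates, medium with 10% serum, drug for 72 h over a 256-fold dose range (nine 2-fold or five 4-fold steps up to the top dose). Adherent lines were fixed and stained with the nucleic acid dye Syto60, suspension lines read with resazurin; signal relative to control wells, capped at 0 and 100%. One two-parameter sigmoid per drug and line, fitted in a mixed model over all curves with the slope shared within a line.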
One may read the IC50 as the concentration needed to halve the response being measured. Regarding “M14 (melanoma, adherent, top dose 20 µM)”, the AUC worked out at 0.952 and the IC50 was > 20 µM.

For “UWB1.289 (ovary, adherent, top dose 20 µM)”, the AUC worked out at 0.979 and the IC50 is > 20 µM.

For “NCI-H1304 (small cell lung carcinoma, suspension, top dose 20 µM)”, the AUC worked out at 0.954 and the IC50 is > 20 µM.

With “CHSA0011 (chondrosarcoma, adherent, top dose 20 µM)”, the AUC came to 0.958 and the IC50 is > 20 µM.

As to “HEL (acute myeloid leukaemia, semi-adherent, top dose 20 µM)”, the AUC worked out at 0.83 and the IC50 was found to be 9.77 µM.

Consider “PCI-15A (head and neck, adherent, top dose 20 µM)”, for which the AUC was found to be 0.819 and the IC50 is 11.5 µM.

On to “MOG-G-UVW (glioma, adherent, top dose 20 µM)”, for which the AUC came to 0.85 and the IC50 was 14.6 µM.

In the case of “HCC1419 (breast, adherent, top dose 20 µM)”, the AUC was determined as 0.817 and the IC50 turned out to be 17.8 µM.

“IST-MEL1 (melanoma, adherent, top dose 20 µM)”: the AUC worked out at 0.886 and the IC50 was > 20 µM.

For the cell line “BFTC-905 (bladder, adherent, top dose 20 µM)”, the AUC is 0.906 and the IC50 is > 20 µM.

Take “CHL-1 (melanoma, adherent, top dose 20 µM)”: the AUC is 0.969 and the IC50 was > 20 µM.

As to “201T (lung adenocarcinoma, adherent, top dose 20 µM)”, the AUC is 0.688 and the IC50 was found to be 4.86 µM.

Consider “GAK (melanoma, adherent, top dose 20 µM)”, for which the AUC came out at 0.976 and the IC50 is > 20 µM.

In the case of “SCC-4 (head and neck, adherent, top dose 20 µM)”, the AUC turned out to be 0.963 and the 50% inhibitory concentration (IC50) is > 20 µM.

Take “IST-SL2 (small cell lung carcinoma, suspension, top dose 20 µM)”: the AUC was determined as 0.876 and the IC50 was found to be 19.7 µM.

As for “PC-14 (lung adenocarcinoma, adherent, top dose 20 µM)”, the AUC was found to be 0.491 and the IC50 amounted to 1.19 µM.

Consider “NCI-H524 (small cell lung carcinoma, suspension, top dose 20 µM)”, for which the AUC was determined as 0.911 and the IC50 was > 20 µM.

Turning to “ME-1 (acute myeloid leukaemia, suspension, top dose 20 µM)”, the AUC was 0.964 and the IC50 is > 20 µM.

As for “KP-N-YS (neuroblastoma, adherent, top dose 20 µM)”, the AUC is 0.833 and the IC50 was 15.7 µM.

“BICR10 (head and neck, adherent, top dose 20 µM)”: the AUC came out at 0.984 and the IC50 is > 20 µM.

For the cell line “LB831-BLC (bladder, adherent, top dose 20 µM)”, the AUC was determined as 0.88 and the IC50 was > 20 µM.

Consider “COR-L311 (small cell lung carcinoma, suspension, top dose 20 µM)”, for which the AUC came out at 0.782 and the IC50 came to 8.98 µM.

In the case of “C32 (melanoma, adherent, top dose 20 µM)”, the AUC is 0.971 and the IC50 was > 20 µM.

Take “KYSE-270 (oesophagus, adherent, top dose 20 µM)”: the AUC was found to be 0.928 and the IC50 was > 20 µM.

As for “NCI-H720 (lung carcinoid, suspension, top dose 20 µM)”, the AUC was determined as 0.992 and the IC50 is > 20 µM.

With “ML-2 (acute myeloid leukaemia, suspension, top dose 20 µM)”, the AUC was 0.648 and the IC50 came out at 3.05 µM.

Turning to “H2795 (mesothelioma, adherent, top dose 20 µM)”, the AUC came out at 0.89 and the IC50 is > 20 µM.

In the case of “LNZTA3WT4 (glioma, adherent, top dose 20 µM)”, the AUC was determined as 0.988 and the IC50 was > 20 µM.

For the cell line “DAN-G (pancreas, adherent, top dose 20 µM)”, the AUC was 0.972 and the IC50 was > 20 µM.

Regarding “MEL-JUSO (melanoma, adherent, top dose 20 µM)”, the AUC stood at 0.639 and the IC50 came to 3.18 µM.

With “MDA-MB-330 (breast, adherent, top dose 20 µM)”, the AUC turned out to be 0.6 and the IC50 came to 2.45 µM.

Consider “BB30-HNC (head and neck, adherent, top dose 20 µM)”, for which the AUC came out at 0.871 and the IC50 was 18.2 µM.

Regarding “SK-N-SH (neuroblastoma, adherent, top dose 20 µM)”, the AUC was 0.933 and the IC50 was > 20 µM.

On to “H2369 (mesothelioma, adherent, top dose 20 µM)”, for which the AUC is 0.968 and the IC50 was > 20 µM.

As for “ROS-50 (B-cell leukaemia, suspension, top dose 20 µM)”, the AUC is 0.938 and the IC50 is > 20 µM.

In the case of “MIA-PaCa-2 (pancreas, adherent, top dose 20 µM)”, the AUC amounted to 0.958 and the 50% inhibitory concentration (IC50) is > 20 µM.

As to “NCI-H2171 (small cell lung carcinoma, suspension, top dose 20 µM)”, the AUC turned out to be 0.946 and the IC50 was > 20 µM.

For “TYK-nu (ovary, adherent, top dose 20 µM)”, the AUC was 0.72 and the IC50 turned out to be 5.54 µM.

With “A2058 (melanoma, adherent, top dose 20 µM)”, the AUC was found to be 0.778 and the IC50 came to 7.19 µM.

Turning to “COR-L23 (large cell lung carcinoma, adherent, top dose 20 µM)”, the AUC was found to be 0.96 and the IC50 was > 20 µM.

In the case of “NB17 (neuroblastoma, adherent, top dose 20 µM)”, the AUC stood at 0.984 and the IC50 was > 20 µM.

In the case of “OE33 (oesophagus, adherent, top dose 20 µM)”, the AUC came to 0.936 and the IC50 was > 20 µM.

Take “OCI-LY-19 (B-cell lymphoma, suspension, top dose 20 µM)”: the AUC was 0.847 and the IC50 stood at 13.1 µM.

Turning to OVISE (ovary, adherent, top dose 20 µM), the AUC came to 0.924 and the IC50 was > 20 µM.

Regarding “A4-Fuk (B-cell lymphoma, suspension, top dose 20 µM)”, the AUC came to 0.873 and the IC50 was > 20 µM.

On to “NCI-SNU-1 (stomach, suspension, top dose 20 µM)”, for which the AUC is 0.674 and the IC50 was determined as 3.9 µM.

As to “SW1463 (large intestine, adherent, top dose 20 µM)”, the AUC stood at 0.725 and the IC50 was 8.85 µM.

Consider “KYM-1 (rhabdomyosarcoma, adherent, top dose 20 µM)”, for which the AUC was 0.991 and the IC50 was > 20 µM.

In the case of “HT (B-cell lymphoma, suspension, top dose 20 µM)”, the AUC was 0.924 and the IC50 was > 20 µM.

Source of the values: the supplement of paper PMC4967469.
